# According to ChEMBL document CHEMBL4888484, “Replenishing the malaria drug discovery pipeline: Screening and hit evaluation of the MMV Hit Generation Library 1 (HGL1) against asexual blood stage Plasmodium falciparum ,using a nano luciferase reporter read-out” (2022):
# About 540 (0.36%) of roughly 150,000 compounds showed an effect of 50% or more. Some of the results follow.
# Tested on: Plasmodium falciparum
# Test: Primary screen in NF54 nanoGlo assay, in single point, at 2uM, 72h; a lower Z score goes with more inhibition
# Type: functional, Erythrocyte
# Conditions: timepoint 72 hour
SMILES,% Inhibition,Z score
OC1(CNc2cncc(-n3cccn3)n2)CCOCC1,-14%,1.45
O=C(Nc1ccnn1C1CCN(Cc2ccc3c(c2)OCCO3)CC1)C1CCCC1,7%,-1.29
COc1ccc(NC(=O)c2cccn2Cc2noc(C)n2)cc1Cl,-8%,1.26
COCCc1nc(-c2cccc(N(C)C)c2)n(CC(F)(F)F)n1,-3%,0.57
Cc1ccc([C@H]2CN(Cc3cccc(OCCO)c3)C[C@@H]2N(C)C)cc1,-13%,1.5
O=C(C1c2ccccc2Oc2ccccc21)N1C2CCC1CC(F)C2 (stereo unspecified),-20%,2.38
COCCNC(=O)NCCCN(C)c1ccccc1F,-4%,0.51
Cc1ccc(NC(=O)[C@H]2CCCN(c3c(-c4ccccc4)c4cc(Cl)ccc4[nH]c3=O)C2)cc1,7%,-1.18
CCNc1nc(NCC)nc(OCCNS(=O)(=O)c2ccccc2)n1,14%,-1.87
Cc1ccc(NC(=O)c2ccc3c(-c4ccccc4)onc3c2)cc1,32%,-4.32
O=C(c1cnc2ccccc2n1)N1CCC[C@H](Cc2nc(C3CC3)no2)C1,5%,-0.62
CN(CC1CC1)C(=O)Cc1cnn(-c2ccccc2)c1,-7%,1.17
COc1cccc(NC(=O)[C@@H](C)C2CCN(C(=O)Nc3ccc(Cl)cc3)CC2)c1,-15%,2.52
O=C(Cc1c(F)cccc1Cl)N1CCC[C@H]1c1cccc(F)c1,5%,-0.93
COCc1cc(Cl)ccc1NC(=O)C1(C(F)(F)F)CCOCC1,-8%,0.9
COCc1nc([C@H]2CCN(S(=O)(=O)c3ccc4c(c3)OCCO4)C2)no1,-7%,1.38
O=C(COc1ccc2ccccc2c1)N1CCC(Oc2ccc(Cl)cn2)CC1,-7%,1.07
Cc1ccc(Br)c(S(=O)(=O)NC2CC3CCC2O3)c1 (stereo unspecified),-4%,0.49
Cc1cc(CCNC(=O)CC2CCCC2)on1,-7%,1.07
Cc1nc(C)c(C(=O)N2C[C@@H](CN3C[C@@H](C)O[C@@H](C)C3)[C@@H](CO)C2)s1,2%,-0.24
Cn1nncc1CNc1ccc(F)c(NC(=O)C2CCCCC2)c1,-14%,1.6

SMILES,% Inhibition,Z score
O=C(N[C@H]1CCCN(Cc2ccccc2)C1)c1cncc(O)n1,0%,-0.04
Cc1cccc(C)c1OCC(=O)Nc1cccc2c1C(=O)N(c1ccccc1)C2=O,-9%,1.14
COc1ccc(-c2c(C(=O)NCc3ccc(C)o3)nn3c(C)cc(C)nc23)cc1S(=O)(=O)N1CCCCC1,-14%,1.39
CC1Cc2cc(F)ccc2C(C)N1C(=O)CS(=O)(=O)C1CC1 (stereo unspecified),-13%,1.73
CCOc1ncccc1C(=O)N1CC[C@@H]2OCc3cccc(c3)Oc3cccc(c3)CC(=O)N(CC)CC(=O)N[C@H]2C1,-6%,1.17
COc1ccc(F)c(F)c1CN1CC[C@@]2(CCCN(CC3CC3)C2=O)C1,-6%,0.82
CN(C)CC(=O)NC1(c2noc([C@H]3CCOC3)n2)CCCCCC1,-6%,0.95
COc1ccc(N(Cc2cc(CN3CCOCC3)cs2)S(=O)(=O)c2ccc(F)c(F)c2)cc1,-11%,1.43
O=c1c(-c2noc(C3(F)CC3)n2)cccn1C1CC1,4%,-0.57
CC(C)(C)OC(=O)NCc1cc(=O)[nH][nH]1,0%,-0.07
CC(C)Oc1ccccc1-c1cc(C(=O)Nc2sc3c(c2C(N)=O)CCCCC3)c2ccccc2n1,-9%,0.97
CCOc1ccc(-c2nc(CN(C)S(=O)(=O)c3cccs3)cs2)cc1OC,-19%,2.6
Cc1ccc(CNC(=O)c2ccc(N3CCCCS3(=O)=O)cc2)cc1,-9%,1.22
N#CCCN(C[C@H]1CCOC1)C(=O)c1cccc2[nH]ccc12,0%,-0.01
Cc1ncccc1C(=O)NCCc1csc(NC(=O)c2cccnc2C)n1,-12%,1.8
CCN(Cc1cnn(CC)c1)C(=O)[C@@H]1CCCN(Cc2ccccc2)[C@@H]1COC,5%,-0.65
NC(=O)c1nccnc1C(=O)Nc1cccc(-c2ncco2)c1,-2%,0.28
O=C(Nc1ccc2[nH]c(=O)[nH]c2c1)c1nn(Cc2ccccc2)c(=O)c2ccccc12,-4%,0.51
Cc1nc(-c2cccc(CN3CC[C@@]4(O)CCCC[C@H]4C3)c2)[nH]c(=O)c1F,-15%,1.56
O=C(CN1CCN(c2ccc(F)cc2)C1=O)NCc1ccccn1,0%,-0.01
c1ccc(-c2noc(-c3ccc[nH]3)n2)cc1,-12%,1.34

SMILES,% Inhibition,Z score
CC1(C)Cc2nc3nc(O)[nH]c3cc2CO1,-6%,0.77
Cn1cc(C(=O)N2CCC23COC3)c(-c2ccc(Cl)s2)n1,-7%,0.91
COc1ccc([C@H]2CC(O)=Nc3c2ncn3-c2ccc(F)cc2)cc1,-5%,0.55
Cc1nc([C@H]2C[C@H](NC(=O)CCc3c(C)noc3C)C2)cc(=O)[nH]1,-5%,0.58
COc1ccccc1CCN(C)CC(=O)Nc1c(C)n[nH]c1C,6%,-0.75
COCc1ccc(NC(=O)N[C@@H](C)C(=O)N2CCCCC2)cc1,-5%,0.69
CC(C)COc1ccc(C(N)=O)cc1N,-9%,1.09
CC(=O)N1CCC2(CC1)Nc1ccccc1S(=O)(=O)N2,4%,-0.5
O=C(CC1CCCC1)NC[C@H](O)c1ccoc1,-4%,0.64
O=C(c1ccns1)N(CCO)CC1CC1,-14%,2.59
Cc1ncc(C)c(N2CCC[C@H](c3[nH]ncc3Cc3ccccc3)C2)n1,1%,-0.08
O=C(O)c1nc(N2CC[C@H](c3ccccc3F)C2)ccc1Cl,4%,-0.72
C[C@H](NC(=O)c1ccc2c(c1)OCO2)C1CC1,15%,-1.71
CC(C)n1ccc(CC(=O)NC[C@H](C)CN2CCCCC2)n1,-1%,0.13
COc1ccc(N2CCN(CN3C(=O)C4(OCCCCO4)c4ccccc43)CC2)cc1,-8%,1.14
O=C(NCCn1cnnn1)C12CCC(C(F)(F)F)(CC1)CC2,16%,-1.89
O=C1C[C@@H](c2ccc(C(=O)O)cc2)c2c(ccc3nsnc23)N1,-16%,2.01
Cc1ccc(S(C)(=O)=O)cc1NC(=O)N(C)Cc1noc(C2CCC2)n1,-2%,0.38
COCC[C@H]1CN(c2ncc(F)c(OC)n2)CCO1,-17%,1.85
CN1CCN(c2nnnc3c2cnn3-c2ccccc2)CC1,0%,0.08
O=C1[C@@H]2CCCN2C(=O)CN1Cc1ccccc1,-5%,0.59

SMILES,% Inhibition,Z score
CC1c2ccsc2CCN1CC(=O)N1CCCC(c2nc3ccccc3s2)C1 (stereo unspecified),-3%,0.53
Cc1ccc2c(c1)C(=O)N(CCC(=O)NCCCCc1nc(-c3cccnc3)cs1)C2=O,1%,-0.25
Cn1cc(C2CC2C(=O)NCCc2nc3c(F)cccc3n2C)cn1 (stereo unspecified),16%,-2.05
Cc1cc(C(=O)NCc2cccc(C(=O)N3CCCC3)c2)c(C)n1-c1ccc2c(c1)OCCO2,-4%,0.56
NS(=O)(=O)N1CCCN(C(=O)CCc2cccc(Cl)c2)CC1,-7%,1.15
C[C@@H]1C[C@@H](Nc2ccccc2)c2ccccc2N1C(=O)c1ccccc1,-10%,1.92
CC1=C[C@@H](CN)[C@H](C(C)C)C[C@H]1Cc1nc2ccc(C)cc2[nH]1,-11%,1.46
Cc1c[nH]c([C@H](C)NS(=O)(=O)N2CCc3ccccc3C2)n1,-4%,0.84
C[C@H](NC(=O)COc1ccc(-c2ncccn2)cc1CN1CCN(c2ccccc2)CC1)c1ccco1,-7%,0.9
Nc1nnc(CNC(=O)c2nc3ccccc3[nH]c2=O)s1,9%,-0.99
N#Cc1ccc(F)c(CN2CC[C@H](c3ccccc3)C2)c1,5%,-0.41
O=c1[nH]ncn1C1CCN(c2nnnn2CC23CCCCC2C3)CC1 (stereo unspecified),1%,-0.13
COCCN1C[C@]2(CCCN(C(=O)c3ccc4[nH]cnc4c3)C2)CCC1=O,-9%,1.53
C[C@H]1CCCN(S(=O)(=O)NCCOc2ccc(F)cc2)C1,-10%,1.29
Cc1ccn2c(F)c(C(=O)N3CCC([C@H](C)N4CCN(C)CC4)CC3)nc2c1,-3%,0.59
NC(=O)[C@@H]1CCCCN1C(=O)COC1CCCC1,-8%,0.92
CC1CC(C(=O)N[C@@H](C)C(=O)N2Cc3ccccc3C2)CCO1 (stereo partly specified),0%,0.03
COc1cc2ccccc2cc1C(=O)Nc1ccc2c(c1)OCCO2,8%,-1.31
CCC[C@H](C)N1CC2(CCN(C(=O)Cc3cnc4ccccn34)CC2)OC1=O,-10%,1.14
CCOC1CCN(C(=O)c2cccc(Cn3ccnc3)c2)CC1,-18%,2.22
